Laboratory results as given in PubChem BioAssay AID1347417 (National Center for Advancing Translational Sciences (NCATS), 2020).
In all, about 120,000 compounds went through this assay and about 5,300 (4.4%) were called active. Inconclusive means that the source gave no clear call. Such entries were picked first, then a sample of the others. The call rests on the fitted dose curve; in most records, active means well fitted inhibition curve with a large enough effect; inconclusive means small, poorly fitted or top-dose-only effect; inactive means no such curve, though single readings can be large or run the other way. A potency beside an inconclusive call is a rough fit, not a confirmed value.

test: qHTS Primary assay for Inhibitors of Plasmodium falciparum Dd2 growth in vitro; further: nearly all actives have a fitted effect of over 65% in size;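 on activity, negative = inhibition: plate controls were DMSO vehicle for no effect and reference drug for full effect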; settings: P. falciparum Dd2 growth, SYBR Green, 72 h; activity, negative = inhibition: at 28.9 µM (top of the series) unless noted; series mostly up to 28.9 µM
Procedure, shortened: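 Infected erythrocytes (Dd2, 0.3% parasitemia, 2.5% hematocrit final) are added to compound in RPMI-1640/Albumax II medium, grown 72 h at 37C in low oxygen, then lysed with saponin/Triton-X containing SYBR Green and read by fluorescence.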
Potency means the concentration at half of the fitted maximal effect; tags describe the fitted curve by direction and shape.

| Compound | activity, negative = inhibition | Potency | outcome |
| --- | --- | --- | --- |
| O=C(O)CC[C@@H]1CN(Cc2cc(=O)[nH]c(=O)[nH]2)CC[C@@H]1N1CCOCC1 | inactive: 4.7% | – | – |
| COc1ccccc1-c1nc2nccc(-c3ccc(Cl)cc3)n2n1 | – | inconclusive: 11.2 µM [inhibitor, partial curve, poor fit] | – |
| Cc1ccc(-n2ncc(C(=O)NCCCN3CCCCC3)c2C2CCN(C(=O)OC(C)(C)C)CC2)c(C)c1 | – | active: 8.91 µM | – |
| CCC(=O)N(C1CCOCC1)C1CCN(S(=O)(=O)c2ccc(Cl)c(C)c2)CC1 | – | inconclusive: 11.2 µM [inhibitor, partial curve, poor fit] | – |
| COCc1nc(-c2ccc(OC3CN(C(=O)C(C)Oc4ccccc4)C3)cc2)no1 (stereo not drawn) | inactive: -5.93% | – | – |
| Cc1ccc(C)c([S+](=O)([O-])c2nnn3c2nc(N2CCC(F)CC2)c2ccccc23)c1 | – | inconclusive: 11.2 µM [inhibitor, single point] | – |
| CCc1ccc(NC(=O)N(Cc2ccc(C)cc2)Cc2cccn2-c2nnc(N3CCCC3=O)s2)cc1 | – | active: 12.6 µM | – |
| CN(C)c1ccc(CN2CC[C@H](c3nc4c(C(N)=O)cccc4[nH]3)C2)cc1 | – | inconclusive: 31.6 µM [inhibitor, single point] | – |
| CCc1ccccc1OCCN1CCN(c2ccc(C#N)cc2)C(=O)C1 | – | inconclusive: 12.6 µM [inhibitor, partial curve, poor fit] | – |
| O=c1[nH]c(N2CCOCC2)nc2c1CCN(Cc1ccc(F)c(F)c1)CC2 | – | inconclusive: 0.891 µM [inhibitor, single point] | – |
| CN(C)[C@H]1CCCCN(C(=O)c2cccc(-c3cccc(F)c3)c2)C1 | – | inconclusive: 6.31 µM [inhibitor, partial curve] | – |
| O=C(c1cc(F)cc(F)c1)N1CCC(c2n[nH]c(=O)n2-c2ccccc2)CC1 | – | inconclusive: 7.94 µM [inhibitor, single point] | – |
| COc1ccccc1[C@H]1CN(C(=O)C2[C@H]3CNC[C@@H]23)[C@@H]2C3CCN(CC3)[C@H]12 (stereo partly drawn) | inactive: -1.33% | – | – |
| O=C(c1ccccc1)N1CCN2C(=O)N(C3CCOCC3)C[C@H]2C1 | inactive: 11.5% [at 44.1 µM] | – | – |
| Cc1c(-c2ccc(F)cc2)[nH]c2ccc(CNCc3cnn(C)c3)cc12 | – | – | inactive |
| O=C(CCC1CCCC1)NCc1nnc2cc(-c3nc(C4CC4)no3)ccn12 | – | inconclusive: 15.8 µM [inhibitor, partial curve, poor fit] | – |
| CN1CCN(C(=O)C2(C)CCCc3cnc(Nc4ccccc4)nc32)CC1 (stereo not drawn) | – | inconclusive: 3.55 µM [inhibitor, partial curve] | – |
| CCN(CC)c1ccc(-n2nc3cc(C)c(NC(=O)c4ccccc4F)cc3n2)cc1 | – | active: 1.41 µM | – |
| Clc1ccc(-c2nnc3n2CCN(CC2CCCCC2)C3)cc1 | inactive: -26% | – | – |
| Cc1ccc(NC(=O)N2CCC(CN3CCC(C)CC3)CC2)cc1F | – | inconclusive: 11.2 µM [inhibitor, single point] | – |
| COc1cccc(CNC(=O)C(NS(=O)(=O)c2ccc3nc(C)sc3c2)C(C)C)c1 (stereo not drawn) | – | inconclusive: 8.91 µM [inhibitor, single point] | – |
| CN(C)c1cc(N2CCCC(NC(=O)COc3ccccc3)C2)ncn1 (stereo not drawn) | – | – | inactive [at 5.79 µM] |
| Cc1nn(CCC#N)c(C)c1[C@@H]1C=C[C@@H](NCc2ccc(F)cc2)C1 | inactive: -15.7% [at 44.1 µM] | – | – |

| Compound | activity, negative = inhibition | Potency | outcome |
| --- | --- | --- | --- |
| COCCN1CC(CO)C2(CCN(Cc3sccc3C)CC2)C1 (stereo not drawn) | – | inconclusive: 7.94 µM [inhibitor, single point] | – |
| OCc1cc(CC2(NCC3CC3)COC2)no1 | inactive: 2.2% [at 44.1 µM] | – | – |
| CC(=O)Nc1cccc(-c2cnc3n[nH]c(-c4ccccc4C)c3n2)c1 | – | inconclusive: 4.47 µM [inhibitor, partial curve, poor fit] | – |
| O=C(C[C@@H]1CCNC[C@@H]1Cc1cc(CC2CCCCC2)on1)NCc1ccccc1 | – | inconclusive: 1.41 µM [inhibitor, full curve, poor fit] | – |
| COCCNC(=O)[C@H]1C[C@H](Oc2ccccc2)CN1C(=O)c1n[nH]c2ccccc12 | – | inconclusive: 11.2 µM [inhibitor, partial curve, poor fit] | – |
| COc1ccc(-c2nc3ccccc3s2)cc1NC(=O)c1cc2ccccc2o1 | – | inconclusive: 0.355 µM [inhibitor, full curve, poor fit] | – |
| O[C@H]1CC[C@@H](Cc2cc(-c3ccc(F)cc3)on2)O[C@@H]1CNCc1cccnc1 | – | inconclusive: 7.94 µM [inhibitor, partial curve, poor fit] | – |
| Cc1nnc(NC(=O)c2cccn(Cc3cccc(Cl)c3)c2=O)s1 | inactive: -16.3% | – | – |
| CCNC(=O)c1c(C)oc2c1CN(C(=O)CCc1ccccc1)CC2 | – | – | inactive |
| CN1CCCCCC(O)c2cc(C(=O)NCc3ccc(F)cc3)ccc21 (stereo not drawn) | – | inconclusive: 17.8 µM [inhibitor, single point] | – |
| Cc1ccc(C(=O)Nc2nc3n(n2)C(c2ccccc2)C=C(c2ccccc2)N3)cc1 (stereo not drawn) | – | active: 11.2 µM | – |
| Cc1ccc(CNC(=O)Cn2c(N(C)Cc3ccccc3)nc(C)cc2=O)cc1 | – | inconclusive: 12.6 µM [inhibitor, partial curve, poor fit] | – |
| O=C(c1cc(F)ccc1F)N1CCC2(CC1)CC(N(Cc1ccccc1)C1CC1)CCO2 (stereo not drawn) | inactive: -7.48% | – | – |
| CN(Cc1cnn(-c2ccccc2)c1)Cc1cc2ccccc2[nH]c1=O | – | inconclusive: 20 µM [inhibitor, single point] | – |
| COc1cccc(OC)c1C(=O)Nc1cccc(-c2nc3cc(C)cc(C)c3o2)c1 | – | inconclusive: 0.562 µM [inhibitor, full curve, poor fit] | – |
| CCOc1ccccc1C(=O)NCc1nnc2ccc(-c3ccc(C)cc3)nn12 | – | inconclusive: 0.794 µM [inhibitor, single point] | – |
| CCCc1cc(-c2nc3c([nH]2)CC(c2ccccc2OC)CNC3=O)on1 (stereo not drawn) | – | inconclusive: 20 µM [inhibitor, single point] | – |
| COc1ccc(C)cc1NC(=O)CN1C(=O)NC2(CCS(=O)(=O)CC2)C1=O | inactive: -3.39% | – | – |
| COC(=O)[C@H]1CN(S(C)(=O)=O)CCN1S(C)(=O)=O | inactive: 33.4% [at 44.1 µM] | – | – |
| CCC(=O)N1CCc2cc(Br)cc(S(=O)(=O)CCC(=O)NCCc3ccccc3Cl)c21 | – | active: 11.2 µM | – |
| COCCN1CC(CO)C2(CCN(C(=O)CN3CCOCC3)CC2)C1 (stereo not drawn) | inactive: 19.5% | – | – |
| CCOc1ccc(-c2nonc2NC(=O)c2ccc(C)cc2)cc1OCC | – | active: 2 µM | – |
| COc1ccc(-c2noc([C@@H]3Cc4nc[nH]c4CN3Cc3ccccc3)n2)cc1 | – | inconclusive: 3.16 µM [inhibitor, full curve] | – |

| Compound | activity, negative = inhibition | Potency | outcome |
| --- | --- | --- | --- |
| Cc1nc(-c2cccs2)cc([C@H]2CN3CC[C@H]2C[C@@H]3CNC(=O)c2ccc(N(C)C)cc2)n1 | – | active: 7.08 µM | – |
| CC#CCn1cc2c3c(cccc31)[C@H](CC(C)C)N[C@H](C(=O)NCCN(C)C)C2 | – | inconclusive: 2.51 µM [inhibitor, full curve, poor fit] | – |
| COc1ccccc1N1CCCc2ncc(C(=O)NCCOc3ccccc3)cc21 | – | inconclusive: 12.6 µM [inhibitor, single point] | – |
| CCc1cccc(NC(=O)C2CCCN(c3cnn(Cc4ccccc4)c(=O)c3)C2)c1 (stereo not drawn) | – | inconclusive: 3.16 µM [inhibitor, partial curve, poor fit] | – |
| CN(c1ccccc1)c1ccc2c(n1)CN(CCOc1ccccc1)C(=O)CO2 | – | inconclusive: 2.24 µM [inhibitor, full curve] | – |
| c1cc2nnc(C3CC3)n2nc1N1CCCC1 | inactive: 19.1% | – | – |
| CC(C)c1nc2c(c(-c3ccc(O)cc3)n1)CCN(Cc1cccnc1)CC2 | – | inconclusive: 3.16 µM [inhibitor, full curve, poor fit] | – |
| CCOC(=O)c1ccc(NC(=O)Cc2ccc(-n3c(CC)nc4cccnc43)cc2)cc1 | – | inconclusive: 10 µM [inhibitor, single point] | – |
| O=C(NCc1cccc(Br)c1)c1cccn1-c1nnc(N2CCCCC2)s1 | – | inconclusive: 8.91 µM [inhibitor, single point] | – |
| CC(C)N1CCC2(CC1)CN(C(=O)c1ccccn1)Cc1ccccc1O2 | – | – | inactive |
| CCc1noc(-c2cn(C3CCN(C(=O)c4cc(Cl)ccc4OC)CC3)nn2)n1 | inactive: -27.5% | – | – |
| CCn1cc(S(=O)(=O)c2cc(C)cc(C)c2)c(=O)c2cc(F)c(N3CCC(C)CC3)cc21 | – | – | inactive |
| COc1ccc(NC(=O)C2(C)CN(C)Cc3ccc(Nc4cccc(OC)c4)nc32)cc1 (stereo not drawn) | – | inconclusive: 3.98 µM [inhibitor, partial curve, poor fit] | – |
| CCOC(=O)c1[nH]c(C)c(CCC(=O)Nc2ccc(N(CC)CC)cc2C)c1C | – | inconclusive: 11.2 µM [inhibitor, single point] | – |
| O=C(COc1ccccc1)N1CCc2c(n(Cc3cccnc3)n(CCc3ccccc3)c2=O)C1 | inactive: 4.08% | – | – |
| COCC(C)NC(=O)c1csc2nc(-c3cccc(C(F)(F)F)c3)cn12 (stereo not drawn) | – | inconclusive: 10 µM [inhibitor, single point] | – |
| COc1ccc(OC)c(CN2CC[C@@H]3OCC(=O)N(Cc4c[nH]c5ccccc45)[C@H]3CC2)c1 | – | – | inactive |
| O=C(NCCN1CCCCC1)C1(CCO)CCN(c2ncccn2)C1 (stereo not drawn) | – | inconclusive: 3.98 µM [inhibitor, partial curve] | – |
| CCc1cccc(NC(=O)CN2C(=O)NC(c3ccc(Cl)cc3)C3=C2COC3=O)c1 (stereo not drawn) | inactive: -19.7% | – | – |
| O=C(NC(c1ccccc1)c1ccccc1)c1cnc2c(c1)N(C(=O)Cc1ccc(O)cc1)CCC2 | – | active: 12.6 µM | – |
| Clc1ccc(CN2CC[C@H](c3nc4cc(Cl)ccc4o3)C2)cc1 | – | inconclusive: 22.4 µM [inhibitor, single point] | – |
| Cc1cn2nc(-c3nc(C4CCCN(C(=O)c5ccccc5)C4)no3)cc2c(=O)[nH]1 (stereo not drawn) | – | inconclusive: 2.82 µM [inhibitor, partial curve] | – |
